Measured values taken from PubChem BioAssay AID1030 (National Center for Advancing Translational Sciences (NCATS), 2008).
About 16,000 (7.3%) of roughly 220,000 compounds were called active. The inconclusive results got no clear call from the source; some entries with a clear call stand among them for comparison. Calls come from the whole dose curve; as a rule, active = well fitted inhibition curve with a large enough effect (not every such curve was filed as active); inconclusive = small, poorly fitted or top-dose-only effect, or another doubt; inactive = no such curve, though single readings can be large or run the other way. No potency is given beside an inconclusive call; the fits are too rough.

These compounds were tested against Aldehyde dehydrogenase 1A1 (Homo sapiens) (UniProt P00352) (assay: qHTS Assay for Inhibitors of Aldehyde Dehydrogenase 1 (ALDH1A1)). Details: Purified ALDH1A1, NADH fluorescence, propionaldehyde substrate; series mostly up to 75.3 µM.
Potency is the fitted concentration of half-maximal effect; tags give direction and shape of the fitted curve.

Chain of UniProt P00352 (P00352 whole entry, looked up): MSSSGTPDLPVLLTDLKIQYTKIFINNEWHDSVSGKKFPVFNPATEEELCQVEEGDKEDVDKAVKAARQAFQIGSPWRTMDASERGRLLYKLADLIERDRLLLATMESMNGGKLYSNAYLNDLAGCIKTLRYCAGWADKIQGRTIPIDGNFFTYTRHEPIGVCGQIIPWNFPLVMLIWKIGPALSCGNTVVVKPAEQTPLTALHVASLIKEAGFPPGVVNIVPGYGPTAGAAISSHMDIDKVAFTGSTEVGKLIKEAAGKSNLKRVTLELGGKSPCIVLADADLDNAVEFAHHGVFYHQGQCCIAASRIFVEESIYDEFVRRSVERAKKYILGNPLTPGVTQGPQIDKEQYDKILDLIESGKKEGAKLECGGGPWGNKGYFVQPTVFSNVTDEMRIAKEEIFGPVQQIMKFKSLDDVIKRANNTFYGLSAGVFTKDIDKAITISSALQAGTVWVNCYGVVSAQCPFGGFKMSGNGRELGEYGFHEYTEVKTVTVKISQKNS

SMILES | Potency
Cc1ccc(-c2nc(N)sc2CC(=O)OCC(=O)NCCC(C)C)cc1 | inactive
Cc1ccc(Cn2c(SCC(=O)N/N=C/c3ccc(C)o3)nc3ccccc32)cc1 | inconclusive [inhibitor, partial curve]
CC(C)(C)c1ccc(-c2n[nH]c(=S)n2C2CCCC2)cc1 | inconclusive [inhibitor, partial curve]
O=C(CSc1nnc(NC(=O)c2ccco2)s1)Nc1ccc2c(c1)OCCO2 | inactive
O=C(O)c1ccccc1N/N=C\c1ccnc2ccccc12 | inconclusive [inhibitor, partial curve]
NC(=O)c1ccc(NC(=O)COC(=O)/C=C/c2cn(-c3ccccc3)nc2-c2cccnc2)cc1 | inconclusive [inhibitor, single point]
O=C1C(=C(c2ccccc2)c2ccccc2)Nc2ccccc21 | active: 0.708 µM
Clc1ccccc1Cc1noc(CN2CCN(c3cnccn3)CC2)n1 | inconclusive [inhibitor, single point]
O=C(CSc1nnnn1-c1cccc2ccccc12)Nc1ccc(N2CCOCC2)c(Cl)c1 | active: 1.78 µM
COC(=O)c1ccc(CO/N=C/c2ccc(OC)cc2)o1 | inactive
CSCCC(N)C(=O)O (stereo unspecified) | inactive
CCOC(=O)c1ccc(NC(=S)N(CCCN2CCN(CC)CC2)Cc2cccs2)cc1 | inconclusive [inhibitor, single point]
O=c1[nH][nH]c(=O)c2c(NS(=O)(=O)c3ccccc3)cccc12 | inconclusive [inhibitor, partial curve]
CN(C)S(=O)(=O)c1ccc(Cl)c(NC(=O)c2ccncc2)c1 | active: 11.2 µM
CCn1c(CNC(=O)Cc2ccc(OC)cc2)nnc1SCC(=O)Nc1ccc(C(=O)O)cc1 | inactive
CCCCCC(=O)N/N=C/c1ccco1 | inconclusive [inhibitor, single point]
CCn1c(SC(=O)NC2CCCCC2)nnc1-c1cccs1 | inconclusive [inhibitor, partial curve]
CC12CCC(C(=O)Nc3ccccc3Br)(C/C1=N\O)C2(C)C (stereo unspecified) | inconclusive [inhibitor, single point]
Cc1ccc(C)c2c1[nH]c1ccc([N+](=O)[O-])cc12 | inactive
CC(C)CNC(=S)NC(=O)c1ccccc1Cl | inactive
COc1ccc(CCNC(=S)Nc2cccc(C)c2)cc1 | inactive
Cc1cc(C(F)F)nn1CC(=O)NCc1ccco1 | inconclusive [inhibitor, partial curve]
Cc1oc(-c2ccc(Cl)cc2)cc1-c1nn2c(-c3ccco3)nnc2s1 | inconclusive [inhibitor, single point]
Oc1cc2ccccc2cc1-c1n[nH]c(=S)n1Cc1ccco1 | inconclusive [inhibitor, partial curve]
CSc1nnc2c(n1)OC=Nc1ccccc1-2 | inactive
Cc1nc2ccc(NC(=O)Nc3ccnc4cccnc34)cc2o1 | inconclusive [inhibitor, partial curve]

SMILES | Potency
COc1ccccc1NC(=O)Nc1ccccc1SC | inactive
O=C1c2cccc3cccc(c23)C(=O)N1CCCCCc1n[nH]c(=S)o1 | inconclusive [inhibitor, full curve]
COc1ccc(CN2C(=O)c3c(c(C)n(C)c3C)C2C(=O)NC2CCC(C)CC2)cc1 (stereo unspecified) | active: 0.794 µM
COc1cccc(CS(=O)(=O)c2nnnn2CC(C)C)c1 | inconclusive [inhibitor, single point]
CC(C)NC(=O)CCCc1c[nH]c2ccccc12 | inconclusive [inhibitor, partial curve, poor fit]
CCOC(=O)c1c(C)noc1-c1ccco1 | inconclusive [inhibitor, single point]
Cc1c2c(n3c(nc4ccccc43)c1C#N)N(CCN(C)C)CC2 | inconclusive [inhibitor, partial curve]
O=C(Cn1c(=O)oc2cc(S(=O)(=O)N3CCCC3)ccc21)N1CCN(c2ccccn2)CC1 | inconclusive [inhibitor, partial curve]
CCc1ccc(C(C)NC(=O)/C=C/c2ccc(Br)cc2)cc1 (stereo unspecified) | inactive
Cc1cc2c(c(=O)o1)C(C1C=CCCC1)C(C#N)=C(N)O2 (stereo unspecified) | active: 7.94 µM
O=C(O)/C=C/C(=O)Nc1ccc2nccnc2c1 | inconclusive [inhibitor, partial curve]
COC(=O)[C@H](Cc1ccccc1)NC(=O)[C@H]1C[C@@H]1[C@H](NC(=O)OCc1ccccc1)c1ccccc1 | inactive
CC(C)NC(=O)Cn1c(=O)cnc2ccccc21 | inconclusive [inhibitor, single point]
Cc1cccc(C(=O)NC2CC3CCCC(C2)N3S(=O)(=O)c2ccccc2)c1 (stereo unspecified) | inconclusive [inhibitor, single point]
CC(=O)C1=C(O)C(=O)N(CCCO)C1c1ccccc1 (stereo unspecified) | inconclusive [inhibitor, single point]
Oc1ccc(N2CCN(C(c3ccccn3)c3nnnn3C3CCCC3)CC2)cc1 (stereo unspecified) | active: 25.1 µM
COCc1cc(=O)[nH]c(SCC(=O)c2ccccc2)n1 | inactive
C[C@@H](N)C(=O)O | inactive
OC(CNCCc1ccc(C(F)(F)F)cc1)COc1cccc2ccccc12 (stereo unspecified) | inactive
CC(NC(=O)Nc1ccc(O)cc1)(C(F)(F)F)C(F)(F)F | inactive
C/C(=N\NC(=S)NCc1ccccc1)c1cccs1 | inconclusive [inhibitor, single point]
O=S(=O)(NC1c2cccc3cccc(c23)C1N1CCNCC1)c1ccc(Cl)cc1 (stereo unspecified) | inactive
C=CCn1c(Cc2ccc(OC)cc2)nnc1SCC(=O)NCCc1ccccc1 | inactive
O=C(NNc1ccccc1[N+](=O)[O-])NC1CCCCC1 | active: 25.1 µM
COC(=O)c1cc(OC)c(OC)cc1NC(=O)c1cc(C(C)(C)C)oc1C | inconclusive [inhibitor, partial curve]
